The IC50 comes from the fitted curve, where viability falls to half of the control; a fit beyond the top or the lowest dose is shown as a bound at that dose. The AUC spans the tested range (256-fold, ending at the top dose) of the same fit; the more sensitive the line, the further below 1. For some of these results: Where the top dose is marked as inferred, it was derived from the fitted curves, not read from the paper. For some of these results: An entry number marks a drug with two screens in the source, which often give different values.
Legend:
Experiment in all cases: Viability of human cancer cell lines after 72 h of drug (GDSC screen)
AZD-0530 = compound: CN1CCN(CCOc2cc(OC3CCOCC3)c3c(Nc4c(Cl)ccc5c4OCO5)ncnc3c2)CC1 [AZD-0530]; conditions: top dose 2 µM
Method: (§1)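 Human cancer cell lines in 384-well plates, medium with 10% serum, drug for 72 h over a 256-fold dose range (nine 2-fold or five 4-fold steps up to the top dose). Adherent lines were fixed and stained with the nucleic acid dye Syto60, suspension lines read with resazurin; signal relative to control wells, capped at 0 and 100%. One two-parameter sigmoid per drug and line, fitted in a mixed model over all curves with the slope shared within a line.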

TPCA-1 = compound: NC(=O)Nc1sc(-c2ccc(F)cc2)cc1C(N)=O [TPCA-1]; conditions: top dose 20 µM
Method: as §1

Imatinib = compound: Cc1ccc(NC(=O)c2ccc(CN3CCN(C)CC3)cc2)cc1Nc1nccc(-c2cccnc2)n1 [Imatinib]; conditions: top dose 2 µM
Method: as §1

Y-39983 = compound: C[C@@H](N)c1ccc(C(=O)Nc2ccnc3[nH]ccc23)cc1 [Y-39983]; conditions: top dose 20 µM; top dose inferred
Method: as §1

PHA-793887 = compound: CC(C)CC(=O)Nc1n[nH]c2c1CN(C(=O)C1CCN(C)CC1)C2(C)C [PHA-793887]; conditions: top dose 10.24 µM
Method: as §1

Pyrimethamine = compound: CCc1nc(N)nc(N)c1-c1ccc(Cl)cc1 [Pyrimethamine]; conditions: top dose 20 µM; top dose inferred
Method: as §1

PLX4720 = compound: CCCS(=O)(=O)Nc1ccc(F)c(C(=O)c2c[nH]c3ncc(Cl)cc23)c1F [PLX4720]; conditions: top dose 10 µM
Method: as §1

Epothilone B = compound: C/C(=C\c1csc(C)n1)[C@@H]1C[C@@H]2O[C@]2(C)CCC[C@H](C)[C@H](O)[C@@H](C)C(=O)C(C)(C)[C@@H](O)CC(=O)O1 [Epothilone B]; conditions: top dose 0.032 µM; top dose inferred
Method: as §1

[1] = screen: GDSC drug entry 1371, top dose inferred

| Cell Line | AUC (AZD-0530) | IC50 (AZD-0530) [µM] | AUC (TPCA-1) | IC50 (TPCA-1) [µM] | AUC (Imatinib) | IC50 (Imatinib) [µM] | AUC (Y-39983) | IC50 (Y-39983) [µM] | AUC (PHA-793887) | IC50 (PHA-793887) [µM] | AUC (Pyrimethamine) | IC50 (Pyrimethamine) [µM] | AUC (PLX4720; screen: GDSC drug entry 1036) | IC50 (PLX4720; screen: GDSC drug entry 1036) [µM] | AUC (PLX4720; [1]) | IC50 (PLX4720; [1]) [µM] | AUC (Epothilone B) | IC50 (Epothilone B) [µM] |
| --- | --- | --- | --- | --- | --- | --- | --- | --- | --- | --- | --- | --- | --- | --- | --- | --- | --- | --- |
| D-336MG (glioma, adherent) | 0.711 | 0.592 | 0.905 | > 20 | 0.96 | > 2 | 0.85 | > 20 | 0.824 | 8.5 | 0.974 | > 20 | 0.981 | > 10 | 0.937 | > 10 | – | – |
| D-502MG (glioma, adherent) | 0.971 | > 2 | 0.862 | > 20 | 0.971 | > 2 | 0.957 | > 20 | 0.955 | > 10.2 | 0.949 | > 20 | 0.901 | > 10 | 0.953 | > 10 | 0.884 | > 0.032 |
| DB (B-cell lymphoma, suspension) | 0.977 | > 2 | 0.665 | 3.83 | 0.98 | > 2 | 0.882 | > 20 | 0.677 | 2.13 | 0.862 | > 20 | 0.905 | > 10 | 0.881 | > 10 | 0.653 | 0.00563 |
| EB2 (Burkitt lymphoma, suspension) | 0.987 | > 2 | 0.305 | 0.376 | 0.97 | > 2 | 0.826 | 10.6 | 0.388 | 0.325 | 0.98 | > 20 | 0.99 | > 10 | 0.983 | > 10 | 0.583 | 0.00331 |
| EM-2 (chronic myeloid leukaemia, suspension) | 0.626 | 0.292 | 0.715 | 5.55 | 0.468 | 0.101 | 0.823 | 13.8 | 0.712 | 2.77 | 0.776 | 9.08 | 0.937 | > 10 | 0.952 | > 10 | 0.842 | 0.0268 |
| ES-2 (ovary, adherent) | 0.986 | > 2 | 0.784 | 7.42 | 0.99 | > 2 | 0.93 | > 20 | 0.929 | > 10.2 | 0.722 | 4.85 | 0.859 | 6.71 | 0.721 | 2.41 | 0.92 | > 0.032 |
| GOTO (neuroblastoma, adherent) | 0.948 | > 2 | 0.829 | 14.9 | 0.971 | > 2 | 0.92 | > 20 | 0.856 | 10.1 | 0.915 | > 20 | 0.961 | > 10 | 0.978 | > 10 | 0.902 | > 0.032 |
| GT3TKB (stomach, adherent) | 0.989 | > 2 | 0.971 | > 20 | 0.99 | > 2 | 0.983 | > 20 | 0.955 | > 10.2 | 0.99 | > 20 | 0.989 | > 10 | 0.825 | 5.07 | 0.302 | 0.000603 |
| HA7-RCC (kidney, adherent) | 0.836 | 1.53 | 0.736 | 6.4 | 0.984 | > 2 | 0.958 | > 20 | 0.961 | > 10.2 | 0.961 | > 20 | 0.977 | > 10 | 0.972 | > 10 | 0.341 | 0.000688 |
| HCC1599 (breast, suspension) | 0.934 | > 2 | 0.751 | 7.47 | 0.97 | > 2 | 0.841 | 17 | 0.54 | 0.836 | 0.819 | 13.6 | – | – | – | – | 0.712 | 0.00876 |
| IST-SL2 (small cell lung carcinoma, suspension) | 0.9 | > 2 | – | – | 0.984 | > 2 | – | – | 0.567 | 0.975 | 0.796 | 9.24 | 0.95 | > 10 | 0.972 | > 10 | 0.722 | 0.00845 |
| SW982 (soft tissue, adherent) | 0.864 | 1.84 | 0.817 | 11.6 | 0.984 | > 2 | 0.848 | 15.6 | 0.7 | 2.38 | – | – | 0.797 | 4.87 | 0.819 | 5.93 | 0.365 | 0.000836 |
| TE-11 (oesophagus, adherent) | 0.85 | 1.31 | 0.974 | > 20 | 0.97 | > 2 | 0.987 | > 20 | 0.99 | > 10.2 | – | – | 0.929 | > 10 | 0.958 | > 10 | 0.457 | 0.00154 |

Source: the supplement of paper PMC4967469
